Data: PubChem BioAssay AID624171 (National Center for Advancing Translational Sciences (NCATS), 2012)
In all, about 410,000 compounds went through this assay and about 1,200 (0.29%) were called active. The inconclusive results got no clear call from the source; some entries with a clear call stand among them for comparison. The call rests on the fitted dose curve; in most records, active means well fitted activation curve with a large enough effect; inconclusive means small, poorly fitted or top-dose-only effect; inactive means flat fitted curve, though single readings scatter. Potencies of inconclusive entries are doubtful fits and often do not repeat.

assay: qHTS of Nrf2 Activators; details: AREc32 ARE-luciferase reporter (MCF7-derived line), luminescence, 24 h; activation: at 46.1 µM (top of the series); further: nearly all actives have a fitted effect of over 65% in size; on activation: % of control where 0% means no effect
Text: Many diseases have some form of oxidative stress injury and ties to inflammation, causing a host of problems for the patient. The antioxidant response element (ARE) plays an important role in alleviating the harmful effects of oxidative stress. The antioxidant response element (ARE) is a transcriptional regulatory element involved in the activation of genes coding for a number of antioxidant proteins and detoxifying enzymes. These enzymes work in concert to protect tissues from oxidative insults and chemical toxicities in human hepatocytes and immune cells. The protective effects of ARE activation are primarily triggered through Nrf2 (NF-E2-related factor) binding to and activating AREs. It is known that Nrf2 controls the production of over 250 antioxidant and detoxification proteins (Hu et al., 2006), thereby protecting tissues by increasing cellular antioxidant content and suppressing inflammatory signaling pathways. The transcription factor Nrf2 is a central link between oxidative chemicals, such as phenolic antioxidants and electrophilic compounds, and the activation of ARE. Nrf2 levels are constitutively low as a consequence of its interaction with Keap1, which targets its degradation (Zipper and Mulcahy, 2002). Electrophiles react with key cysteine residues in Keap1, releasing Nrf2 and allowing its translocation to the nucleus. Once within the nucleus, Nrf2 complexes with coactivators such as p300, and binds to the AREs to induce gene transcription of cytoprotective enzymes, resulting in the prevention of toxicity. Activation of Nrf2 protects tissues by increasing cellular antioxidant content and suppressing inflammatory signaling pathways. Identifying novel and potent Nrf2 activators by using the AREc32 cell line to detect ARE activation by small molecules will lead to the identification and development of probes to study protective pathways in multiple tissues. These specific probes are essential to study the ARE pathway, and eventually to determine whether this pathway does activate genes that could protect against a host of diseases, including cardiovascular diseases, obesity, diabetes, Alzheimer's, and Parkinson's disease.
This project's aim is to identify novel and potent Nrf2 activators by using the AREc32 cell line to detect ARE activation by small molecules, which will lead to the identification and development of probes to study the ARE pathway.
NIH Chemical Genomics Center [NCGC]
NIH Molecular Libraries Probe Centers Network [MLPCN]
Assay Submitter (PI): Curtis Klaassen, University of Kansas Medical Center
5 uL of 1000 cells/well of AREc32_Fluc cells are seeded into 1536-well plate in OPTI-MEM medium with 5% FBS. The plates are incubated overnight at 37 deg C with 5% CO2. Then through pin tool transfer, 23 nL of compounds are added to each well before a 24 hr incubation at 37 deg C with 5% CO2. After the addition of 2.5 uL of Steady-Glo. the plates are kept at RT for 30 min, before they are read on the ViewLux.
Potency means the concentration at half of the fitted maximal effect; tags describe the fitted curve by direction and shape.

| Structure (SMILES) | Potency | activation |
| --- | --- | --- |
| CCOc1cc(/C=N/NC(N)=S)cc(Br)c1OCc1ccccc1C | inactive | – |
| Cc1c(C(=O)N2CCC(c3nc4ccccc4s3)CC2)oc2ccc(Cl)cc12 | inactive | – |
| Cn1nnc(NC(=O)/C=C/c2ccco2)n1 | inconclusive: 11.2 µM [activator, partial curve, poor fit] | – |
| C=CCC[C@@H](Cc1ccc(F)cc1)C(=O)OC[C@@H](NC(=O)[C@@H](CC=C)CC(=O)N[C@@H](CO)Cc1ccccc1)C(C)(C)C | inactive | – |
| Cc1nc(-c2ccccc2)cc(-c2ccccc2)n1 | inconclusive: 11.2 µM [activator, partial curve, poor fit] | – |
| N=c1oc2ccccc2cc1-c1nc2ccccc2c(=O)[nH]1 | inconclusive: 2.51 µM [activator, partial curve, poor fit] | – |
| CC(C)Cc1ccc(S(=O)(=O)N2CCN(Cc3noc(CCC(=O)N4CCCCC4)n3)CC2)cc1 | inactive | – |
| COc1ccc(-n2cc(-c3ccccc3)c3c(Nc4ccc(OC)c(OC)c4)ncnc32)cc1 | inactive | – |
| CC(=O)Oc1ccc(-c2nc3c(C)cccc3c(=O)o2)cc1 | inconclusive: 5.62 µM [activator, partial curve] | – |
| CCN(C(=O)COC(=O)/C=C/c1cnc2ccccc2n1)C1CCS(=O)(=O)C1 (stereo not drawn) | inconclusive: 17.8 µM [activator, single point] | – |
| O=C(CN(c1cccc(C(F)(F)F)c1)S(=O)(=O)c1ccc(Cl)c([N+](=O)[O-])c1)NCc1ccccc1Cl | inconclusive: 25.1 µM [activator, single point] | – |
| CC1(C)CC(=O)C(C(C#Cc2ccccc2)C2=C(O)CC(C)(C)CC2=O)=C(O)C1 | inactive | – |
| COCCNC(=O)CSC1=N/C(=C/c2ccc(Cl)c(Cl)c2)C(=O)N1c1ccccc1F | inconclusive: 28.2 µM [activator, single point] | – |
| Cc1ccc(-c2cc3nc(-c4ccc(Br)cc4)cc(N)n3n2)cc1 | inactive | – |
| c1ccc(-c2csc(NNC3=NCCCCC3)n2)cc1 | inconclusive: 15.8 µM [activator, partial curve, poor fit] | – |
| COc1ccc(-c2n[nH]c(=S)n2-c2ccc(C)cc2)cc1 | inactive | – |
| Cc1c(=O)n(OCc2cccc(F)c2)c2ccccc2[n+]1[O-] | inconclusive: 0.562 µM [activator, full curve, poor fit] | – |
| Cc1ccc(C)c(N(C(=O)Cc2cccs2)C(C(=O)NC2CCCC2)c2ccc(C)o2)c1 (stereo not drawn) | inactive | – |
| CCCSCCCNC(=O)c1ccc2c(c1)sc1nc(-c3ccc(OCC)cc3)cn12 | inactive | – |
| O=c1cc(-c2ccccc2)oc2ccc(O)cc12 | inconclusive: 11.2 µM [activator, partial curve, poor fit] | – |
| COC(=O)c1ccccc1NC(=O)CCS(=O)(=O)c1ccc(Br)s1 | inconclusive: 17.8 µM [activator, single point] | – |
| COc1ccc(NC(=O)COC(=O)c2cc(=O)c3ccccc3o2)cc1OC | active: 12.6 µM | – |
| O=C(NC(=O)c1ccccc1)Nc1ccccc1O | inconclusive: 6.31 µM [activator, full curve, poor fit] | – |

| Structure (SMILES) | Potency | activation |
| --- | --- | --- |
| Cc1ccc(S(=O)(=O)NCC(=O)Nc2cccc([N+](=O)[O-])c2)cc1 | inconclusive: 22.4 µM [activator, single point] | – |
| COC1=C/C(=C/c2c(O)c(C#N)c3ccccn23)C=CC1=O | inconclusive: 20 µM [activator, single point] | – |
| COc1ccccc1NC(=O)CSc1nc(-c2ccccc2F)nc2cc(=O)[nH]n12 | inconclusive: 20 µM [activator, single point] | – |
| COc1cc(/C=N/Nc2ccc(C(F)(F)F)cn2)ccc1O | inconclusive: 3.16 µM [activator, partial curve, poor fit] | – |
| CC(=O)C1=CCC(c2cccc(Cl)c2)N(S(=O)(=O)c2ccc(C)cc2)C1 (stereo not drawn) | inconclusive: 35.5 µM [activator, single point] | – |
| COC(=O)c1ccc2c(c1)C(C)(C)C(/C=C/c1ccccc1O)=[N+]2C | inconclusive: 5.62 µM [activator, single point] | – |
| CN1CCN(c2ccc(-c3cc(NC=O)c4ncc(-c5ccccc5)n4c3)cc2)CC1 | inconclusive: 15.8 µM [activator, single point] | – |
| c1ccc(-c2nc3nc4ccccc4nc3n2Cc2ccco2)cc1 | inconclusive: 7.08 µM [activator, partial curve, poor fit] | – |
| CCCCCCCC#Cc1ccccc1/C=N/S(=O)c1ccc(C)cc1 (stereo not drawn) | inactive | – |
| N/C(Cc1ccc([N+](=O)[O-])cc1)=N\OC(=O)c1ccccc1Br | inconclusive: 25.1 µM [activator, single point] | – |
| O=C(O)/C=C/C(=O)c1ccc2c(c1)CCc1ccccc1-2 | inconclusive: 3.55 µM [activator, single point] | – |
| CC(=O)Cn1cnc2scc(-c3ccc(C)c(C)c3)c2c1=O | inactive | – |
| [O-][n+]1onc2c3ccnnc3ccc21 | inconclusive: 8.91 µM [activator, partial curve] | – |
| COc1ccccc1-c1cc(C(F)(F)F)nc(S(C)(=O)=O)n1 | inconclusive: 5.62 µM [activator, single point] | – |
| COc1ccc(C2CC(c3ccccc3)=NN2c2ccc(S(N)(=O)=O)cc2)cc1OC (stereo not drawn) | – | inactive: -1.12% [at 9.22 µM] |
| O=Cc1c(-c2ccccc2)cc2oc3ccccc3cc1-2 | inconclusive: 3.16 µM [activator, full curve, poor fit] | – |
| O=C(CSc1nnc2ccc3ccccc3n12)c1ccc(F)cc1 | active: 12.6 µM | – |
| O=C(/C=C/c1ccc2c(c1)OCO2)c1ccc[nH]1 | inconclusive: 15.8 µM [activator, single point] | – |
| C=CCNC(=S)N/N=C(\C)c1ccccn1 | inconclusive: 22.4 µM [activator, single point] | – |
| Cc1ccc(NC(=S)Nc2ccc(C(C)C)cc2)cc1S(=O)(=O)N1CCCCCC1 | inactive | – |
| Cc1ccc2[nH]cc(CCNC(=O)c3ccco3)c2c1 | inconclusive: 12.6 µM [activator, partial curve, poor fit] | – |
| CC(C)N(CCC(=O)c1ccc2ccccc2c1)Cc1ccccc1 | inconclusive: 11.2 µM [activator, single point] | – |
| COc1cccc(CN(C)CC2CCCN(CCc3ccccc3C)C2)c1 (stereo not drawn) | inactive | – |

| Structure (SMILES) | Potency | activation |
| --- | --- | --- |
| NS(=O)(=O)c1ccc(CCNC(=O)C2CC(=O)N(Cc3ccccc3Cl)C2)cc1 (stereo not drawn) | inactive | – |
| CCOC(=O)c1c(NC(=O)/C=C/C(=O)O)sc(C)c1-c1ccc(Cl)cc1 | inconclusive: 25.1 µM [activator, single point] | – |
| Cc1cccc(S(=O)(=O)c2c(N)n(/N=C/c3ccccc3)c3nc4ccccc4nc23)c1 | inactive | – |
| O=C(Nc1ccc2ccccc2n1)c1ccccc1 | active: 11.2 µM | – |
| CCN(CC)CCOC(=O)c1ccc(NC(=O)CCCN2C(=O)S/C(=C/c3ccc(OC)cc3)C2=S)cc1 | inactive | – |
| C=CCC[C@H](Cc1ccc(F)cc1)C(=O)OC[C@H](Cc1c[nH]c2ccccc12)NC(=O)[C@@H](CC=C)CC(=O)N[C@@H](CO)Cc1ccccc1 | inactive | – |
| COc1cc(/C=C2\SC(=O)NC2=O)ccc1Oc1ccc([N+](=O)[O-])cn1 | inconclusive: 12.6 µM [activator, partial curve, poor fit] | – |
| N#CSC(c1ccccc1)c1nc2ccccc2[nH]c1=O (stereo not drawn) | inconclusive: 25.1 µM [activator, partial curve, poor fit] | – |
| Oc1ccc(Cl)cc1/C=C/c1ccc2cccc(O)c2n1 | inconclusive: 2.82 µM [activator, full curve, poor fit] | – |
| Cc1cnc(NC(=O)c2cccs2)s1 | inconclusive: 15.8 µM [activator, single point] | – |
| CCCCc1c(-c2ccccc2OC)ncn1Cc1ccc(Cl)cc1 | inactive | – |
| CCc1cccc(C)c1NC(=O)CSc1nc2ccccc2nc1N1CCOCC1 | inactive | – |
| COc1ccc(OC)c(Nc2nc(NCc3ccco3)c3ccccc3n2)c1 | inactive | – |
| CCOc1cc(C(c2c(C)[nH][nH]c2=O)c2c(C)[nH][nH]c2=O)ccc1OCc1ccc([N+](=O)[O-])cc1 | inconclusive: 35.5 µM [activator, partial curve, poor fit] | – |
| Cc1cc(S(=O)(=O)c2ccc(Cl)cc2)nc(S(=O)(=O)c2ccc(Cl)cc2)c1C#N | inconclusive: 3.55 µM [activator, single point] | – |
| O=C(Nc1cccc(S(=O)(=O)N2CCOCC2)c1)c1ccc(Cl)c([N+](=O)[O-])c1 | inconclusive: 14.1 µM [activator, single point] | – |
| N#C/C(=C(\O)c1cc(Cl)sc1Cl)c1nc2ccccc2[nH]1 | inconclusive: 0.891 µM [activator, full curve, poor fit] | – |
| Cc1ccc2oc(=O)c(/C=C(\O)c3ccco3)nc2c1 | inconclusive: 20 µM [activator, single point] | – |
| O=C(CCl)Nc1cccc(S(=O)(=O)NC2=NCCC2)c1 | inconclusive: 3.55 µM [activator, full curve, poor fit] | – |
| O=C(CCNC(=O)c1ccccc1)NCc1ccccc1F | inconclusive: 25.1 µM [activator, single point] | – |
| C=CCn1c(SCC(C)=O)nc2scc(-c3ccco3)c2c1=O | inconclusive: 4.47 µM [activator, partial curve, poor fit] | – |
| N#Cc1c(-c2cccs2)cc(-c2ccccn2)nc1N | active: 7.94 µM | – |
